This passage reports EC50 results from article PMC4140803 (PLoS ONE, 2014).

The test system of the test is HIV-1RF V82F/184V. The test can be described thus: microbe, parasite or virus in culture. Type of test: cell-based. As to conditions: Human immunodeficiency virus 1, C8166, read-out: EC50s.

Where only a bound is given, the exact number is not on record here.

`Nc1ccn([C@@H]2CS[C@H](CO)O2)c(=O)n1` [3TC, lamivudine, reference compound]: the EC50 is > 1000 nM.

For the compound `[N-]=[N+]=N[C@]1(CO)O[C@@H](n2ccc(N)nc2=O)[C@@H](F)[C@@H]1O` [FNC, 2′-deoxy-2′-β-fluoro-4′-azidocytidine], the EC50 amounted to 0.37 ± 0.02 nM.
